From publication PMC6919601, “Identification of Plasmodium dipeptidyl aminopeptidase allosteric inhibitors by high throughput screening” (PLoS ONE, 2019)
About 230 (0.21%) of roughly 110,000 compounds showed an effect of 50% or more. The list shows a part of the results.

biological target: DPAP1 (Plasmodium falciparum, UniProt Q8IIJ9); experiment: primary screen, percent inhibition; read by cleavage of a fluorogenic dipeptide substrate; higher = more effect of the substance; parameters: species or system P. falciparum D10 trophozoite lysates; single well
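Further: 30 min substrate incubation versus DMSO and 10 µM JCP410 controls.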

Sequence of DPAP1 (Q8IIJ9 whole entry, looked up): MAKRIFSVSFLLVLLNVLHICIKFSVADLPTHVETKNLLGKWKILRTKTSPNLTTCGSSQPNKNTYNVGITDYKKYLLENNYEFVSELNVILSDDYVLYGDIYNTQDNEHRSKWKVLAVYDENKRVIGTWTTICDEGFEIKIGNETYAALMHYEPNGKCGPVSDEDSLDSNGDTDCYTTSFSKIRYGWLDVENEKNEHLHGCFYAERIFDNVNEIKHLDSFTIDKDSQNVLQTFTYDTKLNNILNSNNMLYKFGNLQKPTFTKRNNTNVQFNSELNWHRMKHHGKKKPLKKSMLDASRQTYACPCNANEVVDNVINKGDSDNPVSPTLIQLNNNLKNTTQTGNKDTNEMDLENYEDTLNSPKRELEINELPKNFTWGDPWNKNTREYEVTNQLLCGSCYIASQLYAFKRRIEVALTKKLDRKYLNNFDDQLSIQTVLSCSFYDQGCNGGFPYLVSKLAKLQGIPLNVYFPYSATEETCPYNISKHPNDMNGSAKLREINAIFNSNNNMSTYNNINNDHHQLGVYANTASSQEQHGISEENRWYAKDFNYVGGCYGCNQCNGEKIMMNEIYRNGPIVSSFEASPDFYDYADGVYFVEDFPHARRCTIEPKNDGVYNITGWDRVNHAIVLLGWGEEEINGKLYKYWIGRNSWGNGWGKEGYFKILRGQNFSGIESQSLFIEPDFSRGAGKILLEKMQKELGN

| Compound | % Inhibition @ 10 uM |
| --- | --- |
| CCCCCNC(=O)c1ccc2c(c1)ncn2-c1cccc(F)c1 | -0.256% |
| OCCNc1nc2ccccc2n1Cc1ccccc1 | 2.44% |
| CCOC(=O)c1ccccc1NC(=O)c1ccc(C(C)(C)C)cc1 | -3.92% |
| COc1ccc(-c2ccc3c(n2)sc2c(O)cc(O)nc23)cc1OC | 25.7% |
| COc1ccc(NC(=O)C(c2ccccc2)c2ccccc2)cc1OC | -2.78% |
| Cc1ccccc1OCCn1c(SCC(=O)O)nc2ccccc21 | 3.79% |
| CC(C)CC(C(=O)O)N1Cc2ccc(C(=O)O)cc2C1=O (stereo not shown) | -0.795% |
| Cc1oc2c(c1C(=O)NC(Cc1ccccc1)C(=O)O)CCCC2 (stereo not shown) | -2.29% |
| CC1CC(C)(C)NC(=S)N1CC(=O)N1CCN(C(c2ccccc2)c2ccc(Cl)cc2)CC1 (stereo not shown) | -2.04% |
| CCCC(=O)Nc1ccccc1NC(=O)C(CC)c1ccccc1 (stereo not shown) | 1.05% |
| CNC(=O)/C(C#N)=C/c1c(Oc2cc(C)ccc2C(C)C)nc2ccccn2c1=O | 17% |
| N#Cc1c(-c2ccco2)cc(-c2ccccc2)nc1N | -0.446% |
| Nc1nonc1-c1ncon1 | 0.0289% |
| Cc1cc(C)c(NS(=O)(=O)c2ccc(NC(=O)CCC(=O)O)cc2)c(C)c1 | -9.82% |
| CCOc1ccc(/C=c2\sc3nc(=O)c(Cc4ccc(C)cc4)nn3c2=O)cc1OCC | -2.29% |
| Oc1cc(CN2CCOCC2)c(O)cc1CN1CCOCC1 | -6.68% |
| COc1cc(C(=O)Nc2nn3c(-c4cccc(C)c4)nnc3s2)cc(OC)c1OC | 1.68% |
| COc1cc(OC)cc(C(=O)NCCc2cccs2)c1 | -7.35% |
| Clc1nc(Nc2ccc(Br)cc2)nc(N2CCOCC2)n1 | 4.65% |
| COc1ccccc1OCCNC(=O)c1cccs1 | 0.0719% |
| Cn1c(=O)c2ncn(CC(=O)Nc3cc(-c4nc5ccccc5s4)ccc3Cl)c2n(C)c1=O | -5.71% |
| CC1CCc2nn(CC(=O)NCc3cccnc3)cc2C1 (stereo not shown) | -1.58% |
| Cc1ccc(S(=O)(=O)N2CCCC2)cc1S(=O)(=O)N1CCCC1 | 1.52% |
| CC(C)CCNC(=O)c1cc(O)nc2ccc(S(=O)(=O)N3CCCC(C)C3)cc12 (stereo not shown) | 2.05% |
| COc1ccc(OC)c(CCNCc2c(C(=O)O)n(Cc3cccc(F)c3)c3cc(C)ccc23)c1 | -1.08% |
| Cc1ccsc1/C=C1\SC(=S)NC1=O | 1% |

| Compound | % Inhibition @ 10 uM |
| --- | --- |
| Cc1nc(O)nc(O)c1NC(=O)c1cccc2ccccc12 | 3.35% |
| Oc1nc(SCc2ccc(Cl)cc2)nc(O)c1Cc1ccccc1 | -1.64% |
| CCOC(=O)CN1CCc2ccccc2C1 | 5.13% |
| O=C(O)c1ccc(CNC(=O)c2ccc3c(c2)C(=O)N(Cc2ccccc2)C3=O)cc1 | -15.1% |
| CC(C)=C1C2C=CC1C1C(=O)N(c3ccc4c(c3)OCO4)C(=O)C21 (stereo not shown) | -2.54% |
| O=C(c1ccccc1)c1cc(F)c(F)cc1Cl | -3.63% |
| COCCCNC(=O)Cn1ncc2c1-c1cc(C)ccc1OC2 | -3.84% |
| Cc1nn(C)cc1CNC(=O)c1cccc(Br)c1 | -6.44% |
| Nc1nnc(N2CCCC2)s1 | -4.99% |
| CCO/C(O)=C1/C(C)=Nc2nc(SCC(C)C)nn2C1c1ccccc1C (stereo not shown) | -4.79% |
| CC(C(=O)NC(C)C12CC3CC(CC(C3)C1)C2)n1sc2ccccc2c1=O (stereo not shown) | -0.0739% |
| Cc1ccc(NC(=O)CN2CCN(Cc3ccccc3)CC2)cc1Cl | 1.7% |
| CCOC(=O)c1sc(NC(=O)c2cccnc2)nc1C | -0.053% |
| CS(=O)(=O)C1=NSC2=NC(=O)/C(=C\c3ccc(OS(=O)(=O)c4ccccc4)cc3)C(=N)N21 | -3.39% |
| Cc1cc(Cl)ccc1N(CC(=O)NCCSc1ccccc1)S(C)(=O)=O | -6.27% |
| Cc1ccc(-c2c[n+]([O-])c3c([n+]2[O-])CCCC3)cc1 | 0.147% |
| O=[N+]([O-])c1ccc(CN2CCC3(C=Cc4ccccc43)CC2)s1 | 1.74% |
| Cc1ccccc1OCC(=O)Nc1ccc(NC(=O)c2cccs2)cc1 | -3.04% |
| Cc1cc(C)c(OCC(O)CNC(C)C)c(C)c1 (stereo not shown) | -1.45% |
| CN(C)C(=S)NC1(C)CCS(=O)(=O)C1 (stereo not shown) | -2.65% |
| CCc1c(C)c(C#N)c2nc3ccccc3n2c1NCCN(C)C | 2.09% |
| O=C(O)c1cc(NC(=O)c2ccc([N+](=O)[O-])cc2)cc(C(=O)O)c1 | -3.52% |
| COC(=O)NC1CCS(=O)(=O)C1 (stereo not shown) | 7.26% |
| Nc1ccc(-c2nc(-c3ccccc3)c3ccccc3n2)cc1 | 4.57% |
| COc1ccc2c(c1)C(=O)N(c1ccc(C)cc1C)C(=O)C2 | 0.431% |
| CC1CCc2cc(F)ccc2N1S(=O)(=O)c1ccc(Cl)nc1 (stereo not shown) | 3.66% |

| Compound | % Inhibition @ 10 uM |
| --- | --- |
| CS(=O)(=O)Oc1ccc(/C=C2/C(=N)N3C(=NC2=O)SN=C3S(C)(=O)=O)cc1 | -3.39% |
| CC(=O)c1ccc(N2C(=O)/C(=C/c3ccccc3F)N=C2c2ccccc2)cc1 | -3.35% |
| Cc1nnc(O)c2nn(-c3ccccc3)c(C)c12 | -0.0309% |
| CCOc1ccc(NS(=O)(=O)c2ccc(NC(=O)c3ccco3)cc2)cc1 | 1.84% |
| CC(C)C(=O)n1nc(-c2ccco2)nc1NCc1ccc(Cl)cc1 | -1.47% |
| Cc1ccc(CNC(C)c2ccccc2)cc1 (stereo not shown) | 0.722% |
| CC1(C)C(=O)NC(=O)N1C(=O)c1ccccc1 | -3.33% |
| N=C(NOC(=O)Cc1cccs1)c1ccccn1 | -3.13% |
| Nc1ccc(NC=C2C(=O)CC(c3ccccc3)CC2=O)cc1 (stereo not shown) | 5.58% |
| COc1cccc2cc(S(=O)(=O)c3ccc(C)cc3)c(=O)oc12 | -3.1% |
| c1cc2c(cc1-c1nnc(CN3CCC4(CC3)OCCO4)o1)OCO2 | 2% |
| O=C(Nc1cc(Br)cc2cccnc12)c1cccc(Cl)c1 | -1.65% |
| COc1ccc(C2=C/C(=C/c3cccc(OC)c3OC)C(=O)O2)c(OC)c1 | 1.52% |
| COc1ccc(CN2CCN(Cc3ccccc3)CC2)cc1 | -2.03% |
| CCOc1ccccc1NC(=O)c1ccc(Cl)s1 | 2.36% |
| CSc1ccc(C2C(C#N)=C(N)OC3=C2C(=O)CCC3)cc1 (stereo not shown) | 1.96% |
| COc1ccc2c(CNCc3cccc(Cl)c3)c(C(=O)O)n(C)c2c1 | -2.39% |
| OC1=C2C(=Nc3ccccc3NC2c2cccs2)CC(c2ccccc2)C1 (stereo not shown) | -3.77% |
| O=C(O)Cn1ncn2c(c(-n3cccc3)c3c4c(sc32)CCCC4)c1=O | -1.6% |
| c1cncc(CNc2cccc3ccccc23)c1 | -3.82% |
| O=C(NCc1cccnc1)C1CCN(c2ncnc3c2sc2cccc(F)c23)CC1 | -0.637% |
| CS(=O)(=O)N(CC(=O)N1CCCC1)c1ccc(C23C[C@H]4C[C@@H](C2)C[C@@H](C3)C4)cc1 | -4.43% |
| CC(=O)N1CCC(NCc2ccccc2Cl)CC1 | 1.57% |
| CN(CC(=O)N1CCCCCC1)S(=O)(=O)c1cc(Cl)ccc1Cl | -5.95% |
| O=C1NC(c2ccc(O)cc2)Nc2ccccc21 (stereo not shown) | -2.97% |
| O=c1c2c(n3nnnc3n1Cc1ccccc1)-c1ccccc1CC21CCCC1 | -5.78% |

| Compound | % Inhibition @ 10 uM |
| --- | --- |
| O=C(O)CCNC(=O)NC12CC3CC(CC(C3)C1)C2 | 2.58% |
| O=C(c1ccc(Br)o1)N1CCC(Cc2ccccc2)CC1 | -3.45% |
| COc1cc(C(=O)N2CCN(c3cccc(Cl)c3)CC2)cc(OC)c1OC | 4.37% |
| CC1(C)Cc2c(c(-c3ccco3)nc3sc4c(NCCN5CCOCC5)ncnc4c23)CO1 | 1.89% |
| CC(C)NC(=O)C(CCO)NC(C)C (stereo not shown) | -2.18% |
| COc1ccc(C(=O)NC2(Cc3cc(OC)ccc3OC)N=C3C(C)=CC=CN3C2=O)cc1 (stereo not shown) | 2.65% |
| COc1ccc2c(CNC3CCCCCC3)c(C(=O)O)n(Cc3ccccc3C)c2c1 | -2.26% |
| O=C(O)c1ccc(N2C(=O)CC(N3CCN(c4ccc(F)cc4)CC3)C2=O)cc1 (stereo not shown) | -1.38% |
| CCCCSCCCNC(=O)CN1CCN(Cc2ccc(C)cc2)C1=O | 0.718% |
| O=C(NCc1ccccc1)c1ccc2c(O)c(S(=O)(=O)c3ccccc3)c(O)nc2c1 | -2.26% |
| Cc1ccc(C(=O)N/C(=C/c2ccccc2F)C(=O)N2CCCCC2)cc1 | 0.317% |
| Cc1ccccc1-c1nccc2ccccc12 | -3.77% |
| O=C(c1ccccc1)N1CCN(C(=O)c2cc3nc(-c4ccccc4)cc(C(F)(F)F)n3n2)CC1 | -3.24% |
| Cc1cc2c(Cc3ccc(Br)cc3)nnc(O)c2c(O)n1 | 6.61% |
| Cn1c(=O)c2c(nc(NCCO)n2CCCc2ccccc2)n(C)c1=O | -5.08% |
| Cc1ccc2c(=O)cc(C(=O)N(Cc3ccc(Cl)cc3)Cc3ccco3)oc2c1 | 1.9% |
| CCCN1CCC(N2CCCC(C(N)=O)C2)CC1 (stereo not shown) | -1.21% |
| C=CCN1C(=O)C(Cc2ccc(OC)cc2)S/C1=N/N=C/c1ccco1 (stereo not shown) | 4.95% |
| COCc1cc(C)nc(SCC(=O)Nc2ccc(Br)c(C)c2)c1C#N | -8.9% |
| CC(=O)c1c(C)[nH]c(C(=O)NCC2COc3ccccc3O2)c1C (stereo not shown) | -12.3% |
| COc1ccc(-n2cnc3cc(C(=O)NCc4cccnc4)ccc32)cc1 | 1.2% |
| Cc1cccc(C(=O)Nc2sc3c(c2C(=O)O)CCC3)c1 | 6.65% |
| OCCN1CCN(CCO)CC1 | 2.17% |
| CCC(C)n1c(=O)c2sccc2n2c(CCCC(=O)N3CCc4ccccc4C3)nnc12 (stereo not shown) | -2.15% |
| CCOC(=O)c1sc(C)c(C(=O)NCCc2ccccc2)c1N | 20.5% |
